Molecular target: BRD4 (BDII_E352-M457) (Homo sapiens, UniProt O60885)
Experiment: TR-FRET bromodomain binding assay, BRD4 second bromodomain (BDII)
Conditions: mean Ki; 4 nM His tagged BRD4 (BDII_E352-M457), 30 nM Alexa647 probe; Ki calculated from IC50, probe Kd and probe concentration
Protocol: A time-resolved fluorescence resonance energy transfer (TR-FRET) assay was used to determine the affinities of compounds of the Examples listed in Table 1 for each bromodomain of BRD4. […] An Alexa647-labeled BET-inhibitor was used as the fluorescent probe in the assay.
Compound dilution series were prepared in DMSO via an approximately 3-fold serial dilution. Compound dilutions were added directly into white, low-volume assay plates (Perkin Elmer Proxiplate 384 Plus# 6008280) using a Labcyte Echo in conjunction with Labcyte Access and Thermo Multidrop CombinL robotics. Compounds were then suspended in eight microliters (μL) of assay buffer (20 mM Sodium Phosphate, pH 6.0, 50 mM NaCl, 1 mM Ethylenediaminetetraacetic acid disodium salt dihydrate, 0.01% Triton X-100, 1 mM DL-Dithiothreitol) containing His-tagged bromodomain, Europium-conjugated anti-His antibody (Invitrogen PV5596) and Alexa-647-conjugated probe.
After a one-hour equilibration at room temperature, TR-FRET ratios were determined using an Envision multilabel plate reader (Ex 340, Em 495/520).
TR-FRET data were normalized to the means of 24 no-compound controls (“high”) and 8 controls containing 1 μM un-labeled probe (“low”). Percent inhibition was plotted as a function of compound concentration and the data were fit with the 4 parameter logistic equation to obtain IC50s. Inhibition constants (Ki) were calculated from the IC50s, probe Kd and probe concentration.

SMILES	Ki [nM]
Cn1cc([C@H]2C[C@]23C(=O)N(CC(F)(F)F)c2ccccc23)c2cc(C(=O)NC3CC3)[nH]c2c1=O [Example 24, N-cyclopropyl-6-methyl-7-oxo-4-[(1S,2R)-2′-oxo-′-(2,2,2-trifluoroethyl)-1′,2′-dihydrospiro[cyclopropane-1,3′-indol]-2-yl]-6,7-dihydro-1H-pyrrolo[2,3-c]pyridine-2-carboxamide]	5.98
Cn1cc([C@@H]2C[C@@]23C(=O)N(CC(F)(F)F)c2ccccc23)c2cc(C(=O)NC3CC3)[nH]c2c1=O [Example 25, N-cyclopropyl-6-methyl-7-oxo-4-[(1R,2S)-2′-oxo-′-(2,2,2-trifluoroethyl)-1′,2′-dihydrospiro[cyclopropane-1,3′-indol]-2-yl]-6,7-dihydro-1H-pyrrolo[2,3-c]pyridine-2-carboxamide]	1170
CN1C(=O)[C@@]2(C[C@H]2c2cn(C)c(=O)c3[nH]c(-c4cnn(C)c4)cc23)c2ccccc21 [Example 35, (1R,2S)-1′-methyl-2-[6-methyl-2-(1-methyl-1H-pyrazol-4-yl)-7-oxo-6,7-dihydro-1H-pyrrolo[2,3-c]pyridin-4-yl]spiro[cyclopropane-1,3′-indol]-2′(1H)-one]	198
CN1C(=O)[C@]2(C[C@@H]2c2cn(C)c(=O)c3[nH]c(-c4cccnc4)cc23)c2ccccc21 [Example 48, (1S,2R)-1′-methyl-2-[6-methyl-7-oxo-2-(pyridin-3-yl)-6,7-dihydro-1H-pyrrolo[2,3-c]pyridin-4-yl]spiro[cyclopropane-1,3′-indol]-2′(1H)-one]	6.28
CN1C(=O)[C@@]2(C[C@H]2c2cn(C)c(=O)c3[nH]c(-c4cccnc4)cc23)c2ccccc21 [Example 49, (1R,2S)-1′-methyl-2-[6-methyl-7-oxo-2-(pyridin-3-yl)-6,7-dihydro-1H-pyrrolo[2,3-c]pyridin-4-yl]spiro[cyclopropane-1,3′-indol]-2′(1H)-one]	29.4
CN1C(=O)[C@@]2(C[C@H]2c2cn(C)c(=O)c3[nH]c(-c4ccnc(C(F)(F)F)c4)cc23)c2ccccc21 [Example 53, (1R,2S)-1′-methyl-2-{6-methyl-7-oxo-2-[2-(trifluoromethyl)pyridin-4-yl]-6,7-dihydro-1H-pyrrolo[2,3-c]pyridin-4-yl}spiro[cyclopropane-1,3′-indol]-2′(1H)-one]	24.4

Stronger by Ki, values ahead:

Ki [nM]	SMILES
3.25	CN1C(=O)[C@]2(C[C@@H]2c2cn(C)c(=O)c3[nH]c(C(=O)NC4CC4)cc23)c2cc(F)ccc21 [Example 17, N-cyclopropyl-4-[(1S,2R)-5′-fluoro-′-methyl-2′-oxo-1′,2′-dihydrospiro[cyclopropane-1,3′-indol]-2-yl]-6-methyl-7-oxo-6,7-dihydro-1H-pyrrolo[2,3-c]pyridine-2-carboxamide]
2.88	CN1C(=O)[C@]2(C[C@@H]2c2cn(C)c(=O)c3[nH]c(-c4cnn(C)c4)cc23)c2ccccc21 [Example 34, (1S,2R)-1′-methyl-2-[6-methyl-2-(1-methyl-1H-pyrazol-4-yl)-7-oxo-6,7-dihydro-1H-pyrrolo[2,3-c]pyridin-4-yl]spiro[cyclopropane-1,3′-indol]-2′(1H)-one]
2.04	CN1C(=O)[C@]2(C[C@@H]2c2cn(C)c(=O)c3[nH]c(-c4ccnc(C(F)(F)F)c4)cc23)c2ccccc21 [Example 52, (1S,2R)-1′-methyl-2-{6-methyl-7-oxo-2-[2-(trifluoromethyl)pyridin-4-yl]-6,7-dihydro-1H-pyrrolo[2,3-c]pyridin-4-yl}spiro[cyclopropane-1,3′-indol]-2′(1H)-one]

— patent publication US20210130346A1, “Bromodomain Inhibitors” (AbbVie Inc., priority 2017, published 2021)
